Test results as given in the supplement of paper PMC4604168 (melanoma cell lines).
The other results are listed elsewhere or left out. Single values are uncertain, as repeats are few or missing.

System: A2058
Assay: cell count relative to DMSO control; melanoma cells; higher = more viable cells
Conditions: library dose: low library concentration; 72 h
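Also: cell number obtained by counting DAPI-stained nuclei in high-throughput microscope images with image analysis software, screen run in 1,536-well plates.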

SMILES	cell count [%]
Cc1ccc(Nc2nccc(N(C)c3ccc4c(C)n(C)nc4c3)n2)cc1S(N)(=O)=O [Pazopanib] + CC(C)C[C@H](NC(=O)[C@H](Cc1ccccc1)NC(=O)c1cnccn1)B(O)O [Bortezomib] (first compound 0.4 µM, partner dose 0.001 µM)	100
O=C(/C=C/c1cccnc1)NCCCCC1CCN(C(=O)c2ccccc2)CC1 + CCCCCCCCc1ccc(CCC(N)(CO)CO)cc1 [fingolimod] (first compound 0.01 µM, partner dose 2 µM)	99.9
CC1(C)CCC(c2ccc(Cl)cc2)=C(CN2CCN(c3ccc(C(=O)NS(=O)(=O)c4ccc(N[C@H](CCN5CCOCC5)CSc5ccccc5)c(S(=O)(=O)C(F)(F)F)c4)cc3)CC2)C1 + CCN(CC)CCNC(=O)c1c(C)[nH]c(/C=C2\C(=O)Nc3ccc(F)cc32)c1C [sunitinib] (first compound 0.4 µM, partner dose 0.4 µM)	103
CC1(C)CCC(c2ccc(Cl)cc2)=C(CN2CCN(c3ccc(C(=O)NS(=O)(=O)c4ccc(N[C@H](CCN5CCOCC5)CSc5ccccc5)c(S(=O)(=O)C(F)(F)F)c4)cc3)CC2)C1 + C[C@@H](N)c1ccc(C(=O)Nc2ccnc3[nH]ccc23)cc1 [RKI983] (first compound 0.4 µM, partner dose 0.4 µM)	78.8
CC1(C)CCC(c2ccc(Cl)cc2)=C(CN2CCN(c3ccc(C(=O)NS(=O)(=O)c4ccc(N[C@H](CCN5CCOCC5)CSc5ccccc5)c(S(=O)(=O)C(F)(F)F)c4)cc3)CC2)C1 + O=C(O)c1ccc(-c2c[nH]c3ncc(-c4ccccc4)cc23)cc1C1CCCC1 [GSK650394] (first compound 0.4 µM, partner dose 0.16 µM)	82.4
O=C(/C=C/c1cccnc1)NCCCCC1CCN(C(=O)c2ccccc2)CC1 + C[C@@H](Oc1cc(-c2cnn(C3CCNCC3)c2)cnc1N)c1c(Cl)ccc(F)c1Cl [Crizotinib] (first compound 0.01 µM, partner dose 0.2 µM)	111
O=C(/C=C/c1cccnc1)NCCCCC1CCN(C(=O)c2ccccc2)CC1 + Cn1cnc2c(F)c(Nc3ccc(Br)cc3Cl)c(C(=O)NOCCO)cc21 [selumetinib] (first compound 0.01 µM, partner dose 0.015 µM)	116
CC1(C)CCC(c2ccc(Cl)cc2)=C(CN2CCN(c3ccc(C(=O)NS(=O)(=O)c4ccc(N[C@H](CCN5CCOCC5)CSc5ccccc5)c(S(=O)(=O)C(F)(F)F)c4)cc3)CC2)C1 + CN(C)S(=O)(=O)c1ccc2c(c1)/C(=C/c1cc3c([nH]1)CCCC3)C(=O)N2 [SU6656] (first compound 0.4 µM, partner dose 0.4 µM)	90.8
CC1(C)CCC(c2ccc(Cl)cc2)=C(CN2CCN(c3ccc(C(=O)NS(=O)(=O)c4ccc(N[C@H](CCN5CCOCC5)CSc5ccccc5)c(S(=O)(=O)C(F)(F)F)c4)cc3)CC2)C1 + O=C(CCCCCCC(=O)Nc1ccccc1)NO [vorinostat] (first compound 0.4 µM, partner dose 0.08 µM)	107
O=C(/C=C/c1cccnc1)NCCCCC1CCN(C(=O)c2ccccc2)CC1 + CN(C)S(=O)(=O)c1ccc2c(c1)/C(=C/c1cc3c([nH]1)CCCC3)C(=O)N2 [SU6656] (first compound 0.01 µM, partner dose 0.4 µM)	107
CC1(C)CCC(c2ccc(Cl)cc2)=C(CN2CCN(c3ccc(C(=O)NS(=O)(=O)c4ccc(N[C@H](CCN5CCOCC5)CSc5ccccc5)c(S(=O)(=O)C(F)(F)F)c4)cc3)CC2)C1 + COc1ccc(C2=N[C@@H](c3ccc(Cl)cc3)[C@@H](c3ccc(Cl)cc3)N2C(=O)N2CCNC(=O)C2)c(OC(C)C)c1 [Nutlin-3] (first compound 0.4 µM, partner dose 0.1 µM)	101
CC1(C)CCC(c2ccc(Cl)cc2)=C(CN2CCN(c3ccc(C(=O)NS(=O)(=O)c4ccc(N[C@H](CCN5CCOCC5)CSc5ccccc5)c(S(=O)(=O)C(F)(F)F)c4)cc3)CC2)C1 + CCCS(=O)(=O)Nc1ccc(F)c(C(=O)c2c[nH]c3ncc(Cl)cc23)c1F [PLX4720] (first compound 0.4 µM, partner dose 0.08 µM)	94.7
O=C(/C=C/c1cccnc1)NCCCCC1CCN(C(=O)c2ccccc2)CC1 + Clc1ccc(Nc2nnc(Cc3ccncc3)c3ccccc23)cc1 [vatalanib] (first compound 0.01 µM, partner dose 2 µM)	98.8
CC1(C)CCC(c2ccc(Cl)cc2)=C(CN2CCN(c3ccc(C(=O)NS(=O)(=O)c4ccc(N[C@H](CCN5CCOCC5)CSc5ccccc5)c(S(=O)(=O)C(F)(F)F)c4)cc3)CC2)C1 + CO[C@H]1C[C@@H]2CC[C@@H](C)[C@@](O)(O2)C(=O)C(=O)N2CCCC[C@H]2C(=O)O[C@H]([C@H](C)C[C@@H]2CC[C@@H](OCCO)[C@H](OC)C2)CC(=O)[C@H](C)/C=C(\C)[C@@H](O)[C@@H](OC)C(=O)[C@H](C)C[C@H](C)/C=C/C=C/C=C/1C [everolimus] (first compound 0.4 µM, partner dose 0.02 µM)	63
Cc1ccc(Nc2nccc(N(C)c3ccc4c(C)n(C)nc4c3)n2)cc1S(N)(=O)=O [Pazopanib] + C=CCNC1=C2C[C@@H](C)C[C@H](OC)[C@H](O)[C@@H](C)/C=C(\C)[C@H](OC(N)=O)[C@@H](OC)/C=C\C=C(/C)C(=O)NC(=CC1=O)C2=O [Tanespimycin] (first compound 0.4 µM, partner dose 0.002 µM)	89.2
CC1(C)CCC(c2ccc(Cl)cc2)=C(CN2CCN(c3ccc(C(=O)NS(=O)(=O)c4ccc(N[C@H](CCN5CCOCC5)CSc5ccccc5)c(S(=O)(=O)C(F)(F)F)c4)cc3)CC2)C1 + Cc1cc(Nc2cc(N3CCN(C)CC3)nc(/C=C/c3ccccc3)n2)n[nH]1 [ENMD2076] (first compound 0.4 µM, partner dose 0.04 µM)	89.2
O=C(/C=C/c1cccnc1)NCCCCC1CCN(C(=O)c2ccccc2)CC1 + COc1cc(Nc2ncc(F)c(Nc3ccc4c(n3)NC(=O)C(C)(C)O4)n2)cc(OC)c1OC [Tamatinib] (first compound 0.01 µM, partner dose 0.4 µM)	85.6
Cc1ccc(Nc2nccc(N(C)c3ccc4c(C)n(C)nc4c3)n2)cc1S(N)(=O)=O [Pazopanib] + OCc1c[nH]c2ccccc12 [Indole-3-carbinol] (first compound 0.4 µM, partner dose 0.8 µM)	96.4
CC1(C)CCC(c2ccc(Cl)cc2)=C(CN2CCN(c3ccc(C(=O)NS(=O)(=O)c4ccc(N[C@H](CCN5CCOCC5)CSc5ccccc5)c(S(=O)(=O)C(F)(F)F)c4)cc3)CC2)C1 + CS(=O)(=O)c1ccc(C(=O)Nc2ccc(Cl)c(-c3ccccn3)c2)c(Cl)c1 [vismodegib] (first compound 0.4 µM, partner dose 1 µM)	83.7
CC1(C)CCC(c2ccc(Cl)cc2)=C(CN2CCN(c3ccc(C(=O)NS(=O)(=O)c4ccc(N[C@H](CCN5CCOCC5)CSc5ccccc5)c(S(=O)(=O)C(F)(F)F)c4)cc3)CC2)C1 + Cn1c(=O)n(-c2ccc(C(C)(C)C#N)cc2)c2c3cc(-c4cnc5ccccc5c4)ccc3ncc21 [NVP-BEZ235] (first compound 0.4 µM, partner dose 0.004 µM)	87.2
CC1(C)CCC(c2ccc(Cl)cc2)=C(CN2CCN(c3ccc(C(=O)NS(=O)(=O)c4ccc(N[C@H](CCN5CCOCC5)CSc5ccccc5)c(S(=O)(=O)C(F)(F)F)c4)cc3)CC2)C1 + C=CCn1c(=O)c2cnc(Nc3ccc(N4CCN(C)CC4)cc3)nc2n1-c1cccc(C(C)(C)O)n1 [MK1775] (first compound 0.4 µM, partner dose 0.02 µM)	99.4
O=C(/C=C/c1cccnc1)NCCCCC1CCN(C(=O)c2ccccc2)CC1 + OCc1c[nH]c2ccccc12 [Indole-3-carbinol] (first compound 0.01 µM, partner dose 0.8 µM)	89.1
